# Screen size: about 94,000 compounds; about 4,000 (4.3%) were called active. The inconclusive results got no clear call from the source; some entries with a clear call stand among them for comparison. Calls come from the whole dose curve; as a rule, active = well fitted inhibition curve with a large enough effect; inconclusive = small, poorly fitted or top-dose-only effect; inactive = no such curve, though single readings can be large or run the other way. Potencies beside an inconclusive call are fits to weak or partial responses and may not hold up.
# Experiment: Cytotoxic Profiling in NIH 3T3 Cell Line of Diverse Libraries Using Quantitative High-Throughput Screening; note: nearly all actives have a fitted effect of over 55% in size
# Conditions: NIH 3T3 viability, CellTiter-Glo ATP luminescence, 48-72 h; activity change, negative = cytotoxicity: at 96.7 µM (top of the series) unless noted; series mostly up to 96.7 µM
# How it was run: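 Mouse fibroblast NIH 3T3 cells, 400 per well, received compound via pintool and were incubated for 48 or 72 hr prior to CellTiter-Glo ATP luminescence measurement.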
# % is set by controls: 0 for no effect and ±100 for the full control effect; potency is the fitted concentration of half-maximal effect; tags give direction and shape of the fitted curve.
SMILES,Potency,"activity change, negative = cytotoxicity",outcome
Cn1ncc2c(C(=O)NCC#N)cc(-c3ccccc3F)nc21,"inconclusive: 56.2 µM [inhibitor, partial curve, poor fit]",–,–
CCCC(=O)Nc1cc(-c2ccncc2)nn1C,–,inactive: -14% [at 138 µM],–
O=C(CN1C(=O)NC2(CCOCC2)C1=O)Nc1ccc(Br)cc1,"inconclusive: 44.7 µM [inhibitor, partial curve, poor fit]",–,–
CC(C)(C)CCN1CC(Oc2cccc(C(=O)N3CCOCC3)c2)C1,"inconclusive: 44.7 µM [inhibitor, partial curve, poor fit]",–,–
O=C(CCCc1ccccc1)N1CCCC1c1nc(C2CCOCC2)no1 (stereo not given),–,inactive: -27.4%,–
CN(C)CCNC(=O)c1ccnc(-c2nnc3ccc(Nc4ccccc4)nn23)c1,–,–,inactive [at 138 µM]
CC(C)Oc1cccc(-c2cn(C)c(=O)n3cc(CN4CCOCC4)nc23)c1,"inconclusive: 112 µM [inhibitor, single point]",–,–
C=CCn1cc2c3c(cccc31)[C@H](CC(C)C)N[C@H](C(=O)NCCC)C2,active: 70.8 µM,–,–
C[C@H](C(=O)N1CCOCC1)C1CC[C@@]2(C)Cc3sc(CS(=O)(=O)C(C)(C)C)nc3[C@@H](C)[C@@H]2[C@H]1O (stereo not given in full),–,inactive: -22.9%,–
O=C1N(Cc2ccccc2)CCOC12CCN([S+](=O)([O-])c1ccccc1)CC2,"inconclusive: 56.2 µM [inhibitor, partial curve, poor fit]",–,–
Cc1ccc2c(n1)N(C)[C@H](CO)CCN(Cc1cn(C)c3ccccc13)C2,–,inactive: -28.1% [at 138 µM],–
O=C(Nc1ccc(Cl)cc1)N1CCC(Oc2ncccc2C(=O)N2CCOCC2)C1 (stereo not given),–,–,inactive
Cc1noc([C@@H]2CC(F)(F)CN2C(=O)c2cc(C)oc2C)n1,–,inactive: -4.43%,–
O=C(NCCc1ccccc1)N1CCC(N2CC3CC(C2)[C@H]2CCCC(=O)N2C3)CC1 (stereo not given in full),–,–,inactive
O=C(c1ccccc1F)N1CCC(c2nn(-c3ccc(F)cc3)c(=O)[nH]2)CC1,"inconclusive: 56.2 µM [inhibitor, partial curve, poor fit]",–,–
Oc1ccc(-c2nc(C3CC3)nc3c2CN(CC2CCCCC2)CC3)cc1,"inconclusive: 50.1 µM [inhibitor, partial curve, poor fit]",–,–
O=C(Nc1ccc2c(c1)OCO2)C1CCCN(c2cn[nH]c(=O)c2)C1 (stereo not given),–,inactive: -9.46%,–
CCC1=C(C(=O)OC)C(c2ccccc2F)N2C(CC(=O)NCCc3cccs3)=CSC2=N1 (stereo not given),"inconclusive: 50.1 µM [inhibitor, partial curve, poor fit]",–,–
Cc1nn(-c2ccc(F)cc2)c(Oc2ccccc2)c1CCC(=O)N(C)C(C)C,"inconclusive: 44.7 µM [inhibitor, partial curve, poor fit]",–,–
CCC(=O)N(C1CCOCC1)C1CCN(Cc2ccc(C)cc2)CC1,–,inactive: -6.34%,–
O=S(=O)(c1cccc(C(F)(F)F)c1)N1CCN(c2ccc3nnc(C4CC4)n3n2)CC1,"inconclusive: 44.7 µM [inhibitor, partial curve, poor fit]",–,–
CCOC(=O)[C@H]1[C@@H](O)C(=O)N(Cc2ccccc2)C12CCN(C(=O)Nc1ccc3c(c1)OCO3)CC2,"inconclusive: 50.1 µM [inhibitor, partial curve, poor fit]",–,–

SMILES,Potency,"activity change, negative = cytotoxicity",outcome
O=C(NCC1CC1)C1CCCN(Cc2cccc(-c3ccsc3)c2)C1 (stereo not given),"inconclusive: 50.1 µM [inhibitor, partial curve, poor fit]",–,–
COc1ccc(-c2cc(N3CCC(NC(=O)CCc4ccccc4)CC3)n[nH]2)cc1,"inconclusive: 50.1 µM [inhibitor, partial curve, poor fit]",–,–
Cc1ccc(-c2ccc(C(=O)NCCCn3ccnc3C(C)C)cn2)cc1C,"inconclusive: 50.1 µM [inhibitor, partial curve, poor fit]",–,–
O=C([C@@H]1C[C@H](c2ccc(F)cc2)N(Cc2ccccc2Cl)C1)N1CC(O)C1,active: 89.1 µM,–,–
O=C(c1ccco1)N1CCC2(CC1)CC(OCC1CC1)CCO2 (stereo not given),–,–,inactive
COc1cccc(CC(=O)Nc2ccc3c(c2)CN(C2CCCCC2)C(=O)CO3)c1,"inconclusive: 50.1 µM [inhibitor, partial curve, poor fit]",–,–
COc1ccccc1N1CCN(CC[C@H]2CN(C(=O)NC(C)C)CC[C@H]2CC(=O)O)CC1,–,–,inactive
Oc1ccccc1CN1CC(CNc2cccnc2)C2(C1)CN(c1ccccc1)C2 (stereo not given),"inconclusive: 56.2 µM [inhibitor, partial curve, poor fit]",–,–
CC(=O)Nc1ccccc1-c1cn(C)c(=O)n2cc(COc3ccc(Cl)cc3)nc12,active: 100 µM,–,–
COc1ccc(-c2cnc3[nH]cc(CC(=O)N(C)C)c3c2)cc1,active: 12.6 µM,–,–
COc1ccc(-c2cc(C[C@H]3CNCC[C@H]3CC(=O)N3CCN(C)CC3)no2)cc1,"inconclusive: 112 µM [inhibitor, single point]",–,–
COCCN1Cc2ccc(Nc3cccnc3)nc2C(C)(C(=O)Nc2cccc(OC)c2)C1 (stereo not given),"inconclusive: 50.1 µM [inhibitor, partial curve, poor fit]",–,–
COc1ccccc1-c1cc(NCc2cccnc2)c2onc(C)c2n1,"inconclusive: 35.5 µM [inhibitor, partial curve]",–,–
Cc1cccc([S+](=O)([O-])N(C)Cc2cccn2C)c1,"inconclusive: 89.1 µM [inhibitor, partial curve, poor fit]",–,–
O=C(CCC1CCCC1)N1CCCC(Cc2nc(C3CCOCC3)no2)C1 (stereo not given),"inconclusive: 31.6 µM [inhibitor, partial curve, poor fit]",–,–
Cc1noc(C2CC3(CCN(C(=O)c4ccoc4)CC3)CN2C)n1 (stereo not given),–,inactive: -8%,–
Cc1ccc(NC(=O)N2CCC(c3cc(-c4cccc(C)c4)n[nH]3)CC2)cc1,"inconclusive: 35.5 µM [inhibitor, partial curve, poor fit]",–,–
O=C(NCCc1ccc(Cl)cc1)c1ccc2nc(-c3ccccn3)oc2c1,"inconclusive: 50.1 µM [inhibitor, partial curve, poor fit]",–,–
O=C(CN1CC2CC(C1)[C@H]1CCCC(=O)N1C2)NCCc1cccs1 (stereo not given in full),–,inactive: -15.7%,–
COCCNC(=O)CCc1c(C)nn(-c2ccc(F)cc2)c1Oc1ccccc1F,"inconclusive: 50.1 µM [inhibitor, partial curve, poor fit]",–,–
COc1ccc(NC(=O)CCC2CCN(C(=O)c3ccc(OC)o3)CC2)c(OC)c1,"inconclusive: 79.4 µM [inhibitor, partial curve, poor fit]",–,–
COc1cccc(-c2nc(-c3c(C)noc3C)cc3[nH]c(C)cc23)c1OC,"inconclusive: 7.94 µM [inhibitor, full curve, poor fit]",–,–

SMILES,Potency,"activity change, negative = cytotoxicity",outcome
Cc1ccc(Nc2ccnc(N3CCC(NC(=O)c4ccccc4C)CC3)n2)cc1,active: 25.1 µM,–,–
O=C(NCC1CC1)c1nc2c(o1)CCN(Cc1cccc(F)c1F)CC2,"inconclusive: 44.7 µM [inhibitor, partial curve, poor fit]",–,–
COC[C@@H]1CN(C(=O)CCn2nc(C)cc2C)C[C@H]1c1ccncc1,–,inactive: 1.83%,–
O=C(CC1CCOC2(CCN(S(=O)(=O)c3ccc(F)cc3)CC2)C1)N1CCCC1 (stereo not given),"inconclusive: 50.1 µM [inhibitor, partial curve, poor fit]",–,–
CN1CCN(C(=O)c2cn3cc(-c4ccc(C(F)(F)F)cc4)sc3n2)CC1,"inconclusive: 15.8 µM [inhibitor, full curve, poor fit]",–,–
CNC(=O)c1ccc2c(c1)NC(C)(COc1ccccc1)CO2 (stereo not given),"inconclusive: 44.7 µM [inhibitor, partial curve, poor fit]",–,–
O=C(Cc1ccc(F)cc1)NC1CCN(c2ccccc2)C1=O (stereo not given),–,–,inactive
COc1ccc(-c2noc(-c3cccn3CC(=O)Nc3ccc(C)cc3Cl)n2)cc1F,–,–,inactive
COc1ccc(CN2CC3(CCN(C(=O)Nc4ccc(C)c(C)c4)CC3)C2=O)cc1,"inconclusive: 39.8 µM [inhibitor, partial curve]",–,–
O=C1NCCCC[C@]12C[C@H](CO)[C@H](c1ccco1)N2[S+](=O)([O-])c1ccccc1,"inconclusive: 50.1 µM [inhibitor, partial curve, poor fit]",–,–
COCC1CN(C(C)=O)CC12CCN(C(=O)CCCc1ccccc1)CC2 (stereo not given),–,inactive: -5.47%,–
COc1ccccc1-c1ccnc(N[C@H]2CO[C@H]3[C@@H]2OC[C@@H]3NC(=O)Nc2cccc(C(F)(F)F)c2)n1,–,inactive: -26.1%,–
O=C(NCc1ccc(F)cc1)N1CC[C@@H]2COC(=O)N(Cc3ccccc3)[C@@H]2C1,"inconclusive: 35.5 µM [inhibitor, partial curve, poor fit]",–,–
CN(Cc1ccccc1)C(=O)c1ccc2c(c1)NC(C)(CCCCN1CCOCC1)CO2 (stereo not given),"inconclusive: 79.4 µM [inhibitor, partial curve]",–,–
CC(C)CNC(=O)C1COC2(CCN(C(=O)c3ccc(F)cc3F)CC2)N1C(=O)c1ccccc1 (stereo not given),–,inactive: -4.6%,–
COc1ccc(-c2cc(N3CCN(C(=O)c4cc(F)ccc4Cl)CC3)n[nH]2)cc1,"inconclusive: 15.8 µM [inhibitor, partial curve, poor fit]",–,–
COc1ccccc1C(=O)N1CCN(c2ccnc3ccnn23)CC1,"inconclusive: 89.1 µM [inhibitor, partial curve, poor fit]",–,–
O=C1NC2(CCN(Cc3ccc(F)cc3)CC2)Oc2ccccc21,"inconclusive: 79.4 µM [inhibitor, partial curve]",–,–
CCc1ccc(C(=O)N2CCCC(c3noc(-c4cc5c(=O)[nH]c(C)cn5n4)n3)C2)cc1 (stereo not given),–,inactive: -9.86%,–
CC(C)CNC(=O)C1COC2(CCCCC2)N1C(=O)c1cccc([N+](=O)[O-])c1 (stereo not given),–,inactive: -27.9%,–
CNC(=O)c1cc(C)nc2onc(C3CCCN(C(=O)OC)C3)c12 (stereo not given),–,inactive: -10.6%,–

# Source: PubChem BioAssay AID1345082 (National Center for Advancing Translational Sciences (NCATS), 2018)
